# Test results reported in PubChem BioAssay AID504332 (National Center for Advancing Translational Sciences (NCATS), 2011).
# Screen size: about 350,000 compounds; about 31,000 (8.9%) were called active. The inconclusive results got no clear call from the source; some entries with a clear call stand among them for comparison. Calls follow the shape of the dose curve; as a rule, active = well fitted inhibition curve with a large enough effect; inconclusive = small, poorly fitted or top-dose-only effect; inactive = no such curve, though single readings can be large or run the other way. A potency beside an inconclusive call is a rough fit, not a confirmed value.
# Target: Histone-lysine N-methyltransferase EHMT2 (Homo sapiens) (UniProt Q96KQ7)
# Sequence of UniProt Q96KQ7 (Q96KQ7 whole entry, looked up): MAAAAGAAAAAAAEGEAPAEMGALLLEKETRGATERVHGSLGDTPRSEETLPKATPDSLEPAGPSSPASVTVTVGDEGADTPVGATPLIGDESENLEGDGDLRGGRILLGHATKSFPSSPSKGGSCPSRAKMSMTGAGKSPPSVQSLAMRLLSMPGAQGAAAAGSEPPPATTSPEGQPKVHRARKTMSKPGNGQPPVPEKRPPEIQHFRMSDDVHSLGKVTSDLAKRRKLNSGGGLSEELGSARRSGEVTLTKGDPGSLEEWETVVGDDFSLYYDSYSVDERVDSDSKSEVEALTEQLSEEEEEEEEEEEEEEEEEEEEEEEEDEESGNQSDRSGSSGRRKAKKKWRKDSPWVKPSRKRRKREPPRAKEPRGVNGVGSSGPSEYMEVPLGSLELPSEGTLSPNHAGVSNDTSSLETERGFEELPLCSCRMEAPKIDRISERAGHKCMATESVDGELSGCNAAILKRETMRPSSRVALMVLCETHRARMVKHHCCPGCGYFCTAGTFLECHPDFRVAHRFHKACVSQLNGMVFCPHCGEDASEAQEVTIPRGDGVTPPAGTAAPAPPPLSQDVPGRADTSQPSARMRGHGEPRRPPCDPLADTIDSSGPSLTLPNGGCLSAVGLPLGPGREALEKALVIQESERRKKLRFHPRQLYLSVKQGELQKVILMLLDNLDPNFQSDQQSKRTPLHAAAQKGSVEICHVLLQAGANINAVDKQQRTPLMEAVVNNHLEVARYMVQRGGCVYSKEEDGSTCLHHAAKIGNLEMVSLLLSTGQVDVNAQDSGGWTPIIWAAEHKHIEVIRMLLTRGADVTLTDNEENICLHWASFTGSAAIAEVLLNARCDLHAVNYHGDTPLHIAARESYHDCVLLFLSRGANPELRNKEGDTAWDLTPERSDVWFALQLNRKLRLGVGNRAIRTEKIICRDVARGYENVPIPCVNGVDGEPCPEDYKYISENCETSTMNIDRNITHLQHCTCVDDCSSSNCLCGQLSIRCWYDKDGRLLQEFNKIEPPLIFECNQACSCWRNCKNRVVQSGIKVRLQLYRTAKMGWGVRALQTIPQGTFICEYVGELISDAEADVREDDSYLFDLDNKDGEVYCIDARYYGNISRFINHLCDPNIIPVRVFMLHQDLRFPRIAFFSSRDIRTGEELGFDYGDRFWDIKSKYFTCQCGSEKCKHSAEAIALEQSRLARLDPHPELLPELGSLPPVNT
# Experiment: qHTS Assay for Inhibitors of Histone Lysine Methyltransferase G9a; also: nearly all actives have a fitted effect of over 75% in size
# Details: G9a H3K9 monomethylation, AlphaScreen, 2 h; activity, negative = inhibition: at 59 µM (top of the series) unless noted
# How it was run: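 G9a (20 nM) preincubated 15 min RT with compounds, then 500 nM biotinylated H3K9 peptide and 20 uM SAM added; 2 h RT reaction. Monomethyl-H3K9 product detected by AlphaScreen with anti-H3K9me1 antibody, streptavidin donor and anti-rabbit IgG acceptor beads.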
# % is scaled to controls: 0 for no effect and ±100 for the full control effect; potency is read from the fitted curve at half-maximal effect; tags tell the direction and shape of the fitted curve.
Structure (SMILES),"activity, negative = inhibition",Potency
CCOC(=O)CN1NC2(CCC(C(C)(C)C)CC2)NC1=S (stereo unspecified),inactive: 14.1% [at 12.7 µM],
N#Cc1c(N)nc(SCc2ccncc2)c(C#N)c1-c1cccs1,,"inconclusive: 28.2 µM [inhibitor, single point]"
Cc1ccc(O)c(Nc2nc(-c3ccccc3)nc3ccccc23)c1,inactive: 8.07% [at 0.501 µM],
Cc1cnc(NC(=O)CCNC(=O)c2ccccc2Cl)s1,,inactive
CCn1c(COc2ccc(Cl)cc2)nnc1SCC(=O)Nc1ccc2c(c1)OCO2,,"inconclusive: 89.1 µM [inhibitor, single point]"
O=C(CSc1nccn1Cc1ccccc1)NCc1ccco1,,"inconclusive: 39.8 µM [inhibitor, partial curve, poor fit]"
Cc1ccc(/C=C2\SC(=S)N(Cc3ccccc3)C2=O)o1,,"inconclusive: 44.7 µM [inhibitor, full curve, poor fit]"
O=C(C[n+]1ccc(-c2cc(C(=O)Nc3cccc(C(F)(F)F)c3)c3ccccc3n2)cc1)c1cccc([N+](=O)[O-])c1,,active: 50.1 µM
Cc1cccc(N/N=C/c2ccc(C)s2)c1,,"inconclusive: 89.1 µM [inhibitor, single point]"
Cc1cc(C)cc(NC(=O)C(Sc2ncnc3ccccc23)c2ccccc2)c1 (stereo unspecified),,inactive
COc1cccc(/C=N/n2c(C3CCCCC3)n[nH]c2=S)c1,,active: 2.51 µM
CC(C(=O)Nc1ccccc1C(=O)N1CCCC1)n1nnc2ccccc21 (stereo unspecified),,active: 17.8 µM
Cn1cc(-c2cc3n(n2)CCC(=O)N3CCCC(=O)NCc2ccc(Cl)cc2)c2ccccc21,,inactive
O=C(CCCn1c(=O)c2cccn2c2ccccc21)Nc1cc(C(F)(F)F)ccc1Cl,,inactive
CCOc1ccc(CC(=O)NCCS(=O)(=O)N2CCN(c3ccccc3)CC2)cc1,,"inconclusive: 89.1 µM [inhibitor, partial curve, poor fit]"
CC1=C(c2ccc(Cl)cc2)S(=O)(=O)NC1=NCCCN1CCN(c2cc(C)ccc2C)CC1,,"inconclusive: 25.1 µM [inhibitor, single point]"
O=C(O)CCCC(=O)NCCCCc1ccccc1,inconclusive: -79.2% [inhibitor] [at 102 µM],
CCN(CC)c1ccc(NC(=O)C2CCN(c3nnc(-n4cccc4)s3)CC2)c(C)c1,,active: 3.98 µM
CCCCCOc1ccc(Br)cc1/C(C)=N/NC1=NCCN1,,active: 8.91 µM
Clc1ccc(-c2nnc(N3CCOCC3)o2)cc1,,"inconclusive: 56.2 µM [inhibitor, partial curve, poor fit]"
Cc1cc(C(=O)COc2cccnc2[N+](=O)[O-])c(C)n1-c1ccccc1F,inconclusive: -63.1% [inhibitor],
O=C(COc1cccc2cccnc12)N1CCc2ccccc2C1,inconclusive: -55.7% [inhibitor],
COc1ccc(-c2ccc(CCC(=O)O)n2CC(C)C)cc1,,"inconclusive: 11.2 µM [inhibitor, partial curve, poor fit]"

Structure (SMILES),"activity, negative = inhibition",Potency
CN(C)S(=O)(=O)c1ccc(NC(=O)CN2CCN(C(c3ccccc3)c3ccccc3)CC2)cc1,,inactive
CCOC(=O)c1cc(CC)sc1N1C(=O)CC(Sc2ccccc2C(=O)O)C1=O (stereo unspecified),,active: 1.78 µM
CN(C)S(=O)(=O)N1CCC(Oc2ccc(C(=O)NC3CCCCC3)cc2)CC1,,"inconclusive: 89.1 µM [inhibitor, partial curve, poor fit]"
OCCNc1nc2ccccc2n1-c1ncnc2sc3c(c12)CCC3,,"inconclusive: 7.08 µM [inhibitor, single point]"
CCOc1ccc(CN2CCc3nc(N4CCN(c5ccccc5OC)CC4)ncc3C2)cc1OC,,"inconclusive: 31.6 µM [inhibitor, single point]"
CCOC(=O)c1ccc(NC(=O)Cn2cnc3cc(C)c(C)cc32)cc1,,"inconclusive: 89.1 µM [inhibitor, single point]"
Cc1c(NC(=S)NC(=O)c2cccc([N+](=O)[O-])c2)c(=O)n(-c2ccccc2)n1C,,active: 44.7 µM
Cc1cc2cc(CN(Cc3cccs3)C(=S)NCc3ccco3)c(=O)[nH]c2cc1C,,inactive
O=C(CCC(=O)c1ccccc1)NCc1cccc(C(F)(F)F)c1,,inactive
COc1ccc(-c2nc(SCC(=O)NC3CCCC3)c(-c3ccc(F)cc3)[nH]2)cc1,,inactive
Cc1ccc(OCC(=O)NNC(=O)C(=O)NC(C)(C)C)cc1,,"inconclusive: 28.2 µM [inhibitor, single point]"
Cn1nccc1C(=O)NC1CCCc2c1cnn2-c1ccc(F)cc1F (stereo unspecified),,active: 79.4 µM
Cn1cc(CN2CCN(CCO)CC2)c(-c2ccc(Oc3ccccc3)cc2)n1,,"inconclusive: 39.8 µM [inhibitor, single point]"
COc1ccc(-n2c(-c3ccc(C)cc3)cc3c2CC(C)(C)CC3=O)cc1Cl,,active: 10 µM
COc1ccc(NC(=O)CSc2nnc(NC(=O)CN3CCOCC3)s2)cc1,,"inconclusive: 39.8 µM [inhibitor, full curve]"
Cc1ccc(C)c(-n2c(-c3ccc(Br)cc3)csc2=NC(=O)c2ccccc2F)c1,,"inconclusive: 79.4 µM [inhibitor, partial curve, poor fit]"
COc1ccccc1CN(C(=O)CCl)C(C(=O)NC1CCCCC1)c1ccncc1 (stereo unspecified),,"inconclusive: 17.8 µM [inhibitor, partial curve, poor fit]"
CCn1nc(C)c2c(-c3ccccc3)cc(=O)n(C(C)C(=O)NCCC(C)C)c21 (stereo unspecified),,inactive
COc1ccc(N2CCN(C(=O)c3ccc(CSc4ccccc4)cc3)CC2)cc1,,"inconclusive: 0.501 µM [inhibitor, full curve, poor fit]"
CC(C)c1ccc(C(N)=S)cc1,,active: 50.1 µM
C=CCN1N=C(c2ccc(Cl)s2)CSC1=O,,inactive
COc1ccc2c(CC(=O)OCC(=O)Nc3cc(C)c(C)cc3[N+](=O)[O-])coc2c1,,active: 20 µM
COC(=O)C1C2CC3c4[nH]c5cc(OC)ccc5c4CCN3CC2CC(OC)C1OC (stereo unspecified),,"inconclusive: 1.12 µM [inhibitor, full curve, poor fit]"
